Measurements: patent US4723008A, “Isoprenylamine derivatives” (priority 1981, dated 1988)

test system: influenza virus (PR-8); conditions: 50 mg/kg intraperitoneally 24 hours before infection and 5 times every other day from second day; survival 21 days or more

Row | SMILES | Prevention from influenza infection (Survival rate %)
1 | CC(C)=CCCC(C)=CCCC(C)=CCCC(C)=CCCC(C)=CCCC(C)=CCCC(C)=CCCC(C)=CCCC(C)=CCN(CCc1ccccc1)Cc1ccccc1 | 40%
2 | CC(C)=CCCC(C)=CCCC(C)=CCCC(C)=CCCC(C)=CCCC(C)=CCCC(C)=CCCC(C)=CCCC(C)=CCN(CCc1ccccc1)CC(O)CNC(C)(C)C (centres unmarked) [drawing 53] | 70%
3 | CC(C)=CCCC(C)=CCCC(C)=CCCC(C)=CCCC(C)=CCCC(C)=CCCC(C)=CCCC(C)=CCCC(C)=CCCC(C)=CCN(Cc1ccccc1)CC(O)CNC(C)(C)C (centres unmarked) [drawing 52] | 20%
4 | CC(C)=CCCC(C)=CCCC(C)=CCCC(C)=CCCC(C)=CCCC(C)=CCCC(C)=CCCC(C)=CCCC(C)=CCCC(C)=CCN(Cc1ccccc1)CC(O)CN(CCO)CCO (centres unmarked) [drawing 51] | 40%
5 | CC(C)=CCCC(C)=CCCC(C)=CCCC(C)=CCCC(C)=CCCC(C)=CCCC(C)=CCCC(C)=CCCC(C)=CCN(CCc1ccccc1)CC(O)CN1CCN(CCO)CC1 (centres unmarked) [drawing 54] | 60%
